Assay results taken from article PMC4336329 (PLoS ONE, 2015).
Among all 310,000 compounds or so, about 2,200 (0.71%) showed an effect of 50% or more. The effect is printed as a negative number. The list shows a part of the results.

Target: human ether-à-go-go-related gene (hERG) potassium channel (human, UniProt Q12809)
Test: primary screen, population patch clamp on CHO cells stably expressing hERG

Chain of human ether-à-go-go-related gene (hERG) potassium channel (Q12809 whole entry, looked up): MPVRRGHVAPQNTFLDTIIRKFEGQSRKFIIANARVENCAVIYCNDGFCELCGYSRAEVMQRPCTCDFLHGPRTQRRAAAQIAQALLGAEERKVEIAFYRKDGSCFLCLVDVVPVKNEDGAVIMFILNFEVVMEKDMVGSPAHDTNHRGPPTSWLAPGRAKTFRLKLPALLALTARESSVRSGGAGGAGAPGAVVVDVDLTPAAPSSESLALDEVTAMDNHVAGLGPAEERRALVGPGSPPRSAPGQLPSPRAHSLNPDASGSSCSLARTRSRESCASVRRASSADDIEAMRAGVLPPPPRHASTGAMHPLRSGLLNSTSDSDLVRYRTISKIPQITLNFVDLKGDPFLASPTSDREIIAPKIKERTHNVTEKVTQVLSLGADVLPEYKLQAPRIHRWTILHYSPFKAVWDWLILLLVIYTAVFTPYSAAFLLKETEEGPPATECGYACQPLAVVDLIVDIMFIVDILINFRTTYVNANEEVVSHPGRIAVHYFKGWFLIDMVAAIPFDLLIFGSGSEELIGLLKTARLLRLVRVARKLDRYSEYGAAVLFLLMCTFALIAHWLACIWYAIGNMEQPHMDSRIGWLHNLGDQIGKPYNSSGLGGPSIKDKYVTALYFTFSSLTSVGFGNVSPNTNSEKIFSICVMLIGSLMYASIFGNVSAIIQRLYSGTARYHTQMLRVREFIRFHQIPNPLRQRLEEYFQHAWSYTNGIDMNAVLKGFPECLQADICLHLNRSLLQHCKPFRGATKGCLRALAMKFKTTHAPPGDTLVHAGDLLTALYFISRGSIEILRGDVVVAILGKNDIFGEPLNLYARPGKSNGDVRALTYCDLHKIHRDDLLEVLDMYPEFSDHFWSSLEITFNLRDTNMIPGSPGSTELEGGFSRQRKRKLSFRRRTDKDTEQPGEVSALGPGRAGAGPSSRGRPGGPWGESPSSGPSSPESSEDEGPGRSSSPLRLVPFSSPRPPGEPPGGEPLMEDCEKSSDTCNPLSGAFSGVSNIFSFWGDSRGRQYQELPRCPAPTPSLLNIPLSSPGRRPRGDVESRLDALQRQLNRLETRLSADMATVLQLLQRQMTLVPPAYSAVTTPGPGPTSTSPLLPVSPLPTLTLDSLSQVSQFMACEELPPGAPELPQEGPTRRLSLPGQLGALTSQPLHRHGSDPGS

SMILES	hERG current change (%, negative = inhibition) at 1uM
CC(=O)O.COc1ccc2nccc(/C=C/c3ccnc4ccc(OC)cc34)c2c1	-3.3%
Cc1ccnc(N2CCC(C(=O)NNC(=O)c3ccccc3C)CC2)n1	2.96%
CC(C)(C)c1ccc(NC(=S)NCc2cccnc2)cc1	9.46%
Cn1cccc1CC(=O)N/N=C/c1ccc([N+](=O)[O-])cc1	9.3%
CCCc1cc(=O)oc2cc(OCC(=O)NC3CCN(Cc4ccccc4)CC3)ccc12	-31.3%
O=S(=O)(NCC(c1ccc2c(c1)OCO2)N1CCOCC1)c1ccc(Br)cc1 (centres unmarked)	12.6%
CCOC(=O)NC(CC(=O)O)c1ccc(OC)c(OC)c1 (centres unmarked)	-1.33%
COc1ccc2nc(N3CCN(C(=O)c4ccc([N+](=O)[O-])o4)CC3)sc2c1	-14.3%
CCNC(=S)NCc1ccc2[nH]c(C)cc2c1	12.7%
Cc1cc(/C=C2/SC(=O)N(CC(=O)N3CCCC3)C2=O)ccc1N1CCOCC1	8.86%
O=C(c1ccc2nc(-c3ccco3)c(-c3ccco3)nc2c1)N1CCN(c2ncccn2)CC1	-4.63%
CCOC(=O)c1c(NC(NC(C)=O)C(Cl)(Cl)Cl)sc2c1CCCC2 (centres unmarked)	7.76%
CCn1cc(-c2cc(C(F)(F)F)n3nc(C(=O)O)cc3n2)c(C)n1	0.618%
C/C(=N\NC(=O)c1cc(C)oc1C)c1ccc2ccccc2c1	14%
Cn1nccc1C(=O)Nc1cc(Cl)ccc1Cl	11.3%
Cc1ccc2nc(-c3ccccn3)cc(C(=O)N3CCN(c4ncccn4)CC3)c2c1	9.43%
CCCOC1CCCN(C(=O)c2cc(COc3ccc(F)c(F)c3)on2)C1 (centres unmarked)	17.1%
OC1(C#CCCN2CCCCC2)c2ccccc2-c2ccccc21	0.302%
CCOC(=O)C1(Cc2ccccc2Cl)CCN(S(=O)(=O)N(C)C)CC1	13.4%
CCOC(=O)c1c(C)[nH]c(C)c1S(=O)(=O)NCCCc1ccco1	7.87%
O=C1CSC(=S)N1/N=C/c1ccc(C(F)(F)F)cc1	14.7%
COc1ccc(C2CC(c3ccc(Br)cc3)=NN2C(=O)CSC2=NCCS2)cc1 (centres unmarked)	9.46%

SMILES	hERG current change (%, negative = inhibition) at 1uM
O=C(OC1CCOC1=O)c1ccc(Cl)c(S(=O)(=O)N2CCCCC2)c1 (centres unmarked)	16.1%
CN(C)/C=C/C=C1C(=O)CCCC1=O	10.2%
Cc1oc(-c2ccc(Cl)cc2)nc1CSCC(=O)NCCCN1CCOCC1	10.2%
CCN(CC)c1nc(C#N)cc(-c2ccc(OC)cc2)n1	0.63%
COc1ccccc1C(=O)Nc1ccc(OCC(=O)N2CC(C)CC(C)C2)cc1 (centres unmarked)	-4.53%
CCC(C)(C)n1nnnc1C(c1ccc2ncccc2c1)N1CCN(c2ccc(O)cc2)CC1 (centres unmarked)	-0.777%
FC(F)(F)c1cnc(C(c2ccccc2)c2ncn[nH]2)c(Cl)c1 (centres unmarked)	14.2%
Cc1cccc(C(C(=O)NCc2ccc(F)cc2)N(C(=O)c2csnn2)C2CC2)c1 (centres unmarked)	5.6%
COc1ccc(N2CCN(C(=O)CN(c3cccc(OC)c3)S(=O)(=O)c3ccccc3)CC2)cc1	-2.8%
Nc1nc(SCc2ccc([N+](=O)[O-])cc2)nc2nc3c(cc12)CCCC3	12.2%
COc1ccc(NC(=O)CC23CC4CC(CC(C4)C2)C3)cn1	12.5%
O=C(O)c1cccc(NC2=Nc3cccc4cccc2c34)c1	6.94%
COc1ccc(CC(=O)NC(c2ccccc2)c2ccc(C)cc2)c(OC)c1 (centres unmarked)	15.4%
COC(=O)C1(C)NC(c2ccc(Cl)cc2)C2C(=O)N(c3ccccc3)C(=O)C21 (centres unmarked)	8.1%
Cc1nn(C)c(C)c1S(=O)(=O)Nc1ccc2c(c1)OCO2	7.49%
Cc1ccnc(NCc2ccc(Br)cc2)c1	2.72%
COc1cc(C(=O)Nc2ccccc2C(=O)Nc2ccccn2)cc(OC)c1OC	6.84%
O=C(Nc1ccc(-c2nc3ccccc3o2)cc1)c1ccc2c(c1)OCO2	8.83%
O=C(Nc1ccc2nc3n(c(=O)c2c1)CCCCC3)c1ccccc1Cl	-2.65%
CCOc1cc(/C=N/O)cc(Br)c1OCc1ccc(Cl)cc1	12.9%
Fc1cccc(/C=N/NC(=S)Nc2ccccc2Cl)c1	10.7%
O=[N+]([O-])c1ccc(OCc2cn([C@@H](CO)c3ccccc3)nn2)c(Br)c1	12.6%
